Reference: PubChem BioAssay AID624417 (National Center for Advancing Translational Sciences (NCATS), 2012)
Values joined by “and” are separate entries in the source; they are usually repeats but may differ in a detail not shown here. Equal entries are not always repeated. About 6,400 (1.6%) of roughly 410,000 compounds were called active. Inconclusive results, whose numbers are uncertain, are shown with a selection of clear calls. The call rests on the fitted dose curve; in most records, active means well fitted inhibition curve with a large enough effect; inconclusive means small, poorly fitted or top-dose-only effect; inactive means no such curve, though single readings can be large or run the other way. Potencies of inconclusive entries are doubtful fits and often do not repeat.

biological target: Glucagon-like peptide 1 receptor (Homo sapiens) (UniProt P43220); experiment: qHTS of GLP-1 Receptor Inverse Agonists (Inhibition Mode); settings: HEK293 GLP-1R CRE-luciferase, luminescence, 24 h, GLP-1R form is constitutively active; activity change, negative = inhibition: at 38.3 µM (top of the series) unless noted; further: nearly all actives have a fitted effect of over 55% in size
UniProt P43220, sequence (P43220 whole entry, looked up): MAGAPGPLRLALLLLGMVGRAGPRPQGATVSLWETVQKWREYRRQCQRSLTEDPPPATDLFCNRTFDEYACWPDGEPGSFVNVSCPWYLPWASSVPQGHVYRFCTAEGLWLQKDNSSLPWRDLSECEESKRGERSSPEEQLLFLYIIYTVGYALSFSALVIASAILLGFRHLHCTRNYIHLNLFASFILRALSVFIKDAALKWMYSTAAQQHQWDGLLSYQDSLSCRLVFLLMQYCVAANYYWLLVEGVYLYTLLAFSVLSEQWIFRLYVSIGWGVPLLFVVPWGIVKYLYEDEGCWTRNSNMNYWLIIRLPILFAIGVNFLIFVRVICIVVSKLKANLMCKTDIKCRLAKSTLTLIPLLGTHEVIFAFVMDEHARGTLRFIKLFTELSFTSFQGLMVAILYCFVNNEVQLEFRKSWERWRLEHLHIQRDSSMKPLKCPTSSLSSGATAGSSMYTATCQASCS
Procedure, shortened: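 Inverse agonists were sought by their lowering of basal cAMP reporter luciferase output in HEK293 cells stably carrying constitutively active human GLP-1R, after 24 h compound treatment.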
On the % scale 0 is the no-effect control and ±100 the full control effect; potency means the concentration at half of the fitted maximal effect; tags describe the fitted curve by direction and shape.

Potency, active:
CCCCNC(=O)CNC(=S)N(Cc1ccccc1)Cc1cccs1 5.01 µM

Potency, inconclusive:
COc1ccc(N(CC(=O)Nc2ccc(Cl)cc2C)S(=O)(=O)c2ccccc2)c(OC)c1 28.2 µM [inhibitor, single point], CCCNC(=O)COC(=O)c1ccccc1OCc1ccc(Cl)cc1 4.47 µM [inhibitor, partial curve, poor fit], COc1ccc(-c2[nH]ncc2/C=N\NC(=O)c2ccc(C(C)(C)C)cc2)cc1OC 28.2 µM [inhibitor, single point], CC1(C)C2CCC1(C)C1(C2)NC(=O)c2ccccc2O1 (stereo unspecified) 5.01 µM [inhibitor, partial curve], Cc1ccc(S(=O)(=O)Oc2ccccc2[N+](=O)[O-])cc1 11.2 µM [inhibitor, partial curve, poor fit], COc1ccc(C(=O)Nc2cc(C(=O)NCCc3ccccc3)ccc2Cl)cc1 10 µM [inhibitor, partial curve, poor fit], Cc1cccc(C)c1OCC(=O)Nc1cccc(S(=O)(=O)N2CCCC2)c1 10 µM [inhibitor, single point], CCn1c(CNc2ccc(F)cc2)nnc1SCC(=O)Nc1ccccc1OC 14.1 µM [inhibitor, single point], COc1ccccc1CCN1CCCC(CN(C)Cc2ccc(OCCO)cc2)C1 (stereo unspecified) 10 µM [inhibitor, partial curve, poor fit], CN(C)CCCn1cnc2c(c1=N)C(c1ccccc1)c1ccc3ccccc3c1O2 (stereo unspecified) 11.2 µM [inhibitor, partial curve, poor fit], CCOC(=O)C1=C(c2ccc(OC)cc2)C(=O)c2ccccc2C1=O 3.55 µM [inhibitor, full curve, poor fit], COc1ccc(OC)c(CCNC(=O)C(C)n2nc(C)c3c(C)n(-c4ccc(C)cc4)nc3c2=O)c1 (stereo unspecified) 1.26 µM [inhibitor, full curve, poor fit] and 7.08 µM [inhibitor, partial curve, poor fit], O=C(C=Cc1ccccc1)c1cc(Br)ccc1O 15.8 µM [inhibitor, single point], CN1[C@@H]2CC[C@H]1CC(OC(=O)c1c[nH]c3ccccc13)C2 (stereo partly specified) 7.94 µM [inhibitor, partial curve, poor fit], O=C(Nc1ccccc1-c1ccccc1)C1CCCCC1 28.2 µM [inhibitor, single point], c1csc(CNc2nc(-c3cccs3)nc3ccccc23)c1 28.2 µM [inhibitor, single point], CCN(CC)CCNc1nc(-c2ccc(OC)cc2)c(-c2ccc(OC)cc2)s1 1.41 µM [inhibitor, full curve, poor fit], CC(C)(C)c1cc(NCCCn2ccnc2)n2ncc(-c3ccccc3)c2n1 28.2 µM [inhibitor, single point], Cc1ccc(-c2cc(C(F)F)n3ncc(C(=O)N4CCN5CCCC5C4)c3n2)cc1 (stereo unspecified) 15.8 µM [inhibitor, single point], CC(C)N1CCC(C)(C(=O)Nc2cccc(Oc3ccccc3)c2)C1 (stereo unspecified) 12.6 µM [inhibitor, single point], CCN1CCCC1CNC(=O)C1CCN(C(=O)c2cc3sccc3n2Cc2ccc(F)cc2)CC1 (stereo unspecified) 12.6 µM [inhibitor, single point], Cc1ccccc1OCCC(=O)Nc1ccc(F)c(Cl)c1 28.2 µM [inhibitor, single point], CCOC(=O)C1=CCC(c2ccc(CC)cc2)N(S(=O)(=O)c2ccc(C)cc2)C1 (stereo unspecified) 28.2 µM [inhibitor, single point], C=CCOc1ccc(CN(C)Cc2nc3cc(C(F)(F)F)ccc3c(=O)[nH]2)cc1 11.2 µM [inhibitor, single point], Cc1ccc(CNC(=O)COC(=O)c2ccc(S(=O)(=O)N3CCCC3)cc2)cc1 35.5 µM [inhibitor, partial curve, poor fit], Cc1ccc(NC(=O)CSc2nnc(-c3cc4occc4n3C)n2-c2ccccc2C)cc1F 28.2 µM [inhibitor, single point], C=CCn1c(=O)c2c3c(sc2n2c(Nc4ccccc4)nnc12)CCCC3 28.2 µM [inhibitor, single point], COc1ccc(S(=O)(=O)n2nc(OC(=O)c3c(-c4ccccc4Cl)noc3C)cc2N)cc1 5.62 µM [inhibitor, full curve]

Activity change, negative = inhibition, inactive:
O=C(NCc1ccccc1Br)c1ccc(-n2cnc3cccnc32)cc1 7.47%, CC1=CN2C(=N)/C(=C/c3ccco3)C(=O)N=C2S1 11.8%, CCCCCN(C(=O)CCCSc1nncs1)c1c(N)n(CCCC)c(=O)[nH]c1=O 9.91%, COC(=O)CCCC(=O)N1CCCC(C(=O)c2ccc(-c3ccccc3)cc2)C1 (stereo unspecified) -23.4%, CCc1ccc2[nH]c3nc(SCC(=O)NNC(=O)c4ccc(C(C)(C)C)cc4)nnc3c2c1 5.59%, O=C(O)COc1ccccc1-c1ccccc1 1.37%, O=C(c1ccccc1)C1CN(c2ccccc2)CC1c1ccc(Cl)cc1 (stereo unspecified) 0%, COc1cccc(NC(=S)NNC(=O)c2c([N+](=O)[O-])c(C)nn2C)c1 0%, O=C(N/N=C/c1cc([N+](=O)[O-])cc([N+](=O)[O-])c1O)/C(=C\c1cccs1)NC(=O)c1ccccc1 20.5%, O=C(COC(=O)CCC(=O)c1cccs1)Nc1ccc(F)c(F)c1F 9.73%, COc1ccccc1NC1=C(NC(C)=O)C(=O)c2ccccc2C1=O -15.9%

Activity change, negative = inhibition, inconclusive:
COc1ccc(C(CNC(=O)C2CCN(S(=O)(=O)c3ccc(F)cc3)CC2)N(C)C)cc1 (stereo unspecified) -36.1% [inhibitor]
